Consider 42 sequences from paper PMC7819943, “Rice protein-binding microarrays: a tool to detect cis-acting elements near promoter regions in rice”.

This is one part of the list.

The target of the assay is T1, OsWOX13 (Oryza sativa, UniProt Q5QMM3 1-267).
T1 sequence: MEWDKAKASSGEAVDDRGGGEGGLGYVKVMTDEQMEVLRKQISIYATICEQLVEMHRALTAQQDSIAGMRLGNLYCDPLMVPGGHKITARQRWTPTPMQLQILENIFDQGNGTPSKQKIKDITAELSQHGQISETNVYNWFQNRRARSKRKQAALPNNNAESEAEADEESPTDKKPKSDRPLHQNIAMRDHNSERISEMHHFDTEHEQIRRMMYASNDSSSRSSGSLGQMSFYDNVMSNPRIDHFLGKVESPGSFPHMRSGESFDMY
In words: protein-binding microarray (RPBM); PBS, 2% BSA, 51.3 ng/ul salmon testes DNA, 50 uM zinc acetate, 200 nM TF, 25 C, 1 h; high values mean tight binding. The note with it: protein: recombinant; tags: N-terminal polyhistidine and DsRed monomer fusion (pET32a); label: CyDye5-dUTP incorporated in the synthesized complementary strand; 3' TTTTT single-stranded linker to array surface; dsDNA, one strand shown. Summed up: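 Binding signal here means per-feature fluorescence intensity in arbitrary units. The values were read on an Axon 4000B scanner after a custom Agilent array, double-stranded by primer extension with Cy5-dUTP, was incubated with 200 nM protein at 25 °C for 1 h in PBS with 2% BSA, salmon testes DNA and 50 µM zinc acetate, then washed. The proteins were transcription factors with an N-terminal polyhistidine tag and DsRed, expressed in E. coli BL21-CodonPlus and purified on Ni–NTA.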
Regarding “TTTTAGCTAATACTTAATTAATCGTGCATTAATCCATCACCGGAGTCACCTAGTGCAG”, the binding signal is 3540 fluorescence intensity (a.u.).

With “TAAATTTACCTTTTAAAATTATAACAATTACTCCCTCCGTCGGAGTCACCTAGTGCAG”, the binding signal is 7360 fluorescence intensity (a.u.).

For the sequence “ATATTATGATTTGTCATAAGTGATGATACTATACTTCCTACGGAGTCACCTAGTGCAG”, the binding signal was 4110 fluorescence intensity (a.u.).

On to “CTCAGTAATCACTTCGCACATTAACTCTCTCTCTCTTTCTCGGAGTCACCTAGTGCAG”, for which the binding signal was 3320 fluorescence intensity (a.u.).

On to “GTATTAAAAGACACGATAGATTGGCAGATTACCACCATCGCGGAGTCACCTAGTGCAG”, for which the binding signal was 23700 fluorescence intensity (a.u.).

As to “GCTAGATTTAATGAAACTAATTTGGTGTTTTGAAAGTTGCCGGAGTCACCTAGTGCAG”, the binding signal was 28200 fluorescence intensity (a.u.).

For “GAATAATTACCGAAAAGGCAATTAATTAGTGACAGGGAGTCGGAGTCACCTAGTGCAG”, the binding signal was 26200 fluorescence intensity (a.u.).

Turning to “TAAATTGGAATCTTCAATTTTACCCCTACCTTAAGCAAAGCGGAGTCACCTAGTGCAG”, the binding signal is 16500 fluorescence intensity (a.u.).

“ATTAATTAAAATTTGAAAAGAAATTGGATAATACTAAAATCGGAGTCACCTAGTGCAG”: the binding signal was 5240 fluorescence intensity (a.u.).

On to “ATGATTTACATTATTGTTCGAAACAATAACATGTAAATCCCGGAGTCACCTAGTGCAG”, for which the binding signal is 27000 fluorescence intensity (a.u.).

On to “AGAGACTTAATAGATTCCGAAATCACCATCATCGCTGTTTCGGAGTCACCTAGTGCAG”, for which the binding signal is 7780 fluorescence intensity (a.u.).

In the case of “AAATTAATTTATCGTACATCACTAGTCACAGGCTTTTGTGCGGAGTCACCTAGTGCAG”, the binding signal is 21800 fluorescence intensity (a.u.).

“AAGTCTAATTAATCCATCATTAGCAAATGTTTATTGTAGCCGGAGTCACCTAGTGCAG”: the binding signal is 26700 fluorescence intensity (a.u.).

For the sequence “ACTTGATTGGCAGTCGCCACTGACCAACTTTCCAAAACCTCGGAGTCACCTAGTGCAG”, the binding signal was 40500 fluorescence intensity (a.u.).

As to “CGAATTTTCAATTATACTATCGATTTAAACTAAGTAATGGCGGAGTCACCTAGTGCAG”, the binding signal is 7150 fluorescence intensity (a.u.).

“TAGGAATTGAATAAACATGATAAGTTGGGGTTCTGAAGACCGGAGTCACCTAGTGCAG”: the binding signal is 6520 fluorescence intensity (a.u.).

For “ATATGTTATTAGTTAATTATTACCGGCCTTCCACATGAGCCGGAGTCACCTAGTGCAG”, the binding signal was 8280 fluorescence intensity (a.u.).

As to “AATATAATTTTAAATTGTAAAATTATAGAGCTAACAAGTTCGGAGTCACCTAGTGCAG”, the binding signal was 35900 fluorescence intensity (a.u.).

“ATTGCAATTACATCGATCAAAGGTGTGGCCCATTGCATATCGGAGTCACCTAGTGCAG”: the binding signal was 5630 fluorescence intensity (a.u.).

Take “GTTCGTTCGTTCGTTGATTGATTGTGTTGAATTAATTGAGCGGAGTCACCTAGTGCAG”: the binding signal is 27600 fluorescence intensity (a.u.).

Take “AGTTAATTAATTAATTAGCTACGTACTCTTGTGCCTCTGTCGGAGTCACCTAGTGCAG”: the binding signal is 54900 fluorescence intensity (a.u.).

Take “GAGCGCAAATTTGTTTGATAAATTTTAGGTGAAAATTTGTCGGAGTCACCTAGTGCAG”: the binding signal was 15600 fluorescence intensity (a.u.).

“CCCCATCATAAATGGCTGATTTAATTGGGCTGTACTCCCTCGGAGTCACCTAGTGCAG”: the binding signal was 18900 fluorescence intensity (a.u.).

For “AGTTATTGACAGTGACTAATCTACCTAATCCGTAGATTAACGGAGTCACCTAGTGCAG”, the binding signal is 12500 fluorescence intensity (a.u.).

In the case of “CTGAGTGACTGGTTGGTGGGCCCCACCCAGCGTCTCTTCTCGGAGTCACCTAGTGCAG”, the binding signal was 8170 fluorescence intensity (a.u.).

Regarding “GGTAATTGGGAGGGAATTCCTCCTTTACTTCACATAAACACGGAGTCACCTAGTGCAG”, the binding signal was 13400 fluorescence intensity (a.u.).

As to “TCCCAATTGAATATTTGCACACATTTGTTTCTTTCCTTTGCGGAGTCACCTAGTGCAG”, the binding signal is 8920 fluorescence intensity (a.u.).

For the sequence “CTTCAATCTATCAGTTCACTTAGGGAGTGTTTGAAGAGAACGGAGTCACCTAGTGCAG”, the binding signal was 9100 fluorescence intensity (a.u.).

Turning to “AAAATAAATTGACAACATTCGTACAATATATATAAATATCCGGAGTCACCTAGTGCAG”, the binding signal is 25900 fluorescence intensity (a.u.).

Take “ACTAAAATTGAAAGTTTGATTAAAATTAGAACGATGTGACCGGAGTCACCTAGTGCAG”: the binding signal was 39800 fluorescence intensity (a.u.).

Turning to “TATGAATATAAATCATGAATAACTCTCAAGTTGTTGAGTTCGGAGTCACCTAGTGCAG”, the binding signal was 4760 fluorescence intensity (a.u.).

As for “ATCTCGAAGTAAATTTAATTGTTCAAAATTATATAAAAGCCGGAGTCACCTAGTGCAG”, the binding signal is 6980 fluorescence intensity (a.u.).

On to “GATTTTCAGTCTAATGCCATTTAGCAATTCTGATGTTAGACGGAGTCACCTAGTGCAG”, for which the binding signal is 3490 fluorescence intensity (a.u.).

For the sequence “GTTGATTTGATAATGATAATTATGCAATGGCCGACATATACGGAGTCACCTAGTGCAG”, the binding signal was 37800 fluorescence intensity (a.u.).

As for “CAAAATTGGTAGACTTTCATGACAGAATCCCTGTACATTACGGAGTCACCTAGTGCAG”, the binding signal is 12000 fluorescence intensity (a.u.).

In the case of “AATAAATTGTATTAATAACAAATTAGTCTATTCTATTAAACGGAGTCACCTAGTGCAG”, the binding signal is 24100 fluorescence intensity (a.u.).

Regarding “ATTTTACAGGGTGATTTGAACATACAGTAATTATGGCCAACGGAGTCACCTAGTGCAG”, the binding signal was 6520 fluorescence intensity (a.u.).

Turning to “CTGTAGATTGAGCCTAAAACTATAAGTAACATAAGTCAAACGGAGTCACCTAGTGCAG”, the binding signal is 8590 fluorescence intensity (a.u.).

“GTTGGCCTGGATTGATGGCGAGGCGAGCGCGGATGGACGTCGGAGTCACCTAGTGCAG”: the binding signal is 3400 fluorescence intensity (a.u.).

With “GTTCGTTTTCCGTGCACTAATTAAACAGTTACGGCGACTTCGGAGTCACCTAGTGCAG”, the binding signal is 3430 fluorescence intensity (a.u.).

“GTGTGTGATGGGTTAATCGATGTGCTATGTTATTGGTTTCCGGAGTCACCTAGTGCAG”: the binding signal is 5310 fluorescence intensity (a.u.).

Regarding “TAACTCATGATTAATAAATAAGCCTGTAAGTTACAGAACTCGGAGTCACCTAGTGCAG”, the binding signal is 7260 fluorescence intensity (a.u.).
